From patent US10758569B2, “Heteroaryl disulfide compounds as allosteric effectors for increasing the oxygen-binding affinity of hemoglobin” (The General Hospital Corporation, priority 2014, dated 2020) come the findings set out here.

Data set [1] in a line: Solubility (Table 3). To be noted: solvents (concentration where printed). It is filed as physicochemical.
In data set [2] the target is T1, hemoglobin (Homo sapiens, UniProt P68871+P69905).
T1 construct: from tissue; host or cells: outdated donated human red blood cells (hemolysate supernatant, dialysed against DPBS)
The experiment in a line: Oxygen dissociation curve (ODC) of purified hemoglobin, HEMOX analyzer. To be noted: for P50 of purified Hb / % met Hb: hemoglobin 20 μM; for P50 of purified Hb: added compound 120 μM, no unit in table (text gives P50 in Torr); for % met Hb / n50: compound 120 μM; for n50: purified Hb 20 μM. It is filed as biochemical. Here is the method: The ODC of hemoglobin with Compound 1 was measured to determine the increase of oxygen binding affinity of hemoglobin (FIG. 2A). […] Incubation of hemoglobin with Compound 1 reduced the Bohr effect (the increase of the P50 of hemoglobin induced by decreasing the pH).

Data set [3] has as its system whole blood. The experiment in a line: ODC (P50) of whole blood. To be noted: hemoglobin 20 μM, compound 120 μM.

Each structure is given as a SMILES string. Marks after values point to notes of the source that are not given here.

For `CCOC(=O)c1sc(SSc2sc(C(=O)OCC)c(C)c2C(=O)OCC)c(C(=O)OCC)c1C` [Compound 18, tetraethyl 5,5′-disulfanediylbis(3-methylthiophene-2,4-dicarboxylate)], the Solubility result in data set [1] was “DMSO - not completely soluble”. In data set [2], the “P50 of purified Hb” value was 16.37, the “% met Hb” value was found to be 3.3% and the n50 worked out at 2.87.
Taken in the same sequence, the figures for `c1n[nH]cc1SSc1cn[nH]c1` [Compound 15, 1,2-di(1H-pyrazol-4-yl)disulfane] were “DMSO”, 15.6, 1.7% and 2.65.
Consider `c1ccc2c(c1)OCC(c1nnc(SSc3nnc(C4COc5ccccc5O4)[nH]3)[nH]1)O2` (centres unmarked) [Compound 1, 1,2-bis(5-(2,3-dihydrobenzo[b][1,4]dioxin-2-yl)-4H-1,2,4-triazol-3-yl)disulfane], for which the Solubility entry in data set [1] was “DMSO, PG (0.5M) PEG-400 (0.5M)”. Besides, in data set [2], the “P50 of purified Hb” value is 4, the “% met Hb” value came out at 5% and the n50 turned out to be 2.23. Moreover, the “P50 of whole blood” value in data set [3] (no unit in table) was 6.06.
For the molecule `CC(=O)c1sc(SSc2nc(C)c(C(C)=O)s2)nc1C` [Compound 11, 1,1′-(2,2′-disulfanediylbis(4-methylthiazole-5,2-diyl))diethanone], the Solubility result in data set [1] is given as “DMSO”. In data set [2], the “P50 of purified Hb” value is given as 15.01, the “% met Hb” value is 5.4% and the n50 was 2.3.
As for `Nc1nnc(SSc2nnc(N)[nH]2)[nH]1` [Compound 19, 5,5′-disulfanediylbis(4H-1,2,4-triazol-3-amine)], the Solubility entry in data set [1] was “DMSO, PBS”. Moreover, the “P50 of purified Hb” value in data set [2] is 19. For the same molecule, in data set [3] (no unit in table), the “P50 of whole blood” value is listed as 26.5.
Regarding `c1cc(-c2nnc(SSc3nnc(-c4ccncc4)[nH]3)[nH]2)ccn1` [Compound 2, 1,2-bis(5-(pyridin-4-yl)-4H-1,2,4-triazol-3-yl)disulfane], the Solubility entry in data set [1] was “DMSO, PBS (pH 2.5, <20 mM)”. In data set [2], the “P50 of purified Hb” value was 4.94, the “% met Hb” value is listed as 4.2% and the n50 was 2.7. Besides, the “P50 of whole blood” value in data set [3] (after 1 h @ 37° C.) is 10^a.
As for `Clc1nsc(SSc2nc(Cl)ns2)n1` [Compound 14, 1,2-bis(3-chloro-1,2,4-thiadiazol-5-yl)disulfane], the Solubility result in data set [1] is reported as “DMSO”. For the same molecule, in data set [2], the “P50 of purified Hb” value stood at 10.2, the “% met Hb” value is listed as 7.5% and the n50 was determined as 1.75. For the same molecule, the “P50 of whole blood” value in data set [3] (no unit in table) is recorded as 24.65.
Consider `Sc1nnc(SSc2nnc(S)s2)s1` [Compound 13, 5,5′-disulfanediylbis(1,3,4-thiadiazole-2-thiol)], for which, in data set [2], the “P50 of purified Hb” value is 4.28^d, the “% met Hb” value is given as 6.6% and the n50 turned out to be 2.36.
Turning to `Cc1nn(-c2ccccc2)c(C=O)c1SSc1c(C)nn(-c2ccccc2)c1C=O` [Compound 16, 4,4′-disulfanediylbis(3-methyl-1-phenyl-1H-pyrazole-5-carbaldehyde)], the Solubility result in data set [1] is listed as “DMSO”. For the same molecule, in data set [2], the “P50 of purified Hb” value was found to be 9.4, the “% met Hb” value is listed as 5.3% and the n50 is given as 2.3.
For the molecule `Cc1noc(C)c1SSc1c(C)noc1C` [Compound 17, 1,2-bis(3,5-dimethylisoxazol-4-yl)disulfane], the Solubility result in data set [1] is listed as “DMSO”. For the same molecule, in data set [2], the “P50 of purified Hb” value worked out at 5.91, the “% met Hb” value stood at 5.2% and the n50 stood at 2.4.
For `c1ccc(-n2nnnc2SSc2nnnn2-c2ccccc2)cc1` [Compound 10, 1,2-bis(1-phenyl-1H-tetrazol-5-yl)disulfane], the “% met Hb” value in data set [2] is 1.7%. The “P50 of whole blood” value in data set [3] (no unit in table) is reported as 29.22.
For `C(=N\c1nnc(SSc2nnc(/N=C/c3ccccc3)s2)s1)/c1ccccc1` [Compound 12, (NE,N′E)-5,5′-disulfanediylbis(N-benzylidene-1,3,4-thiadiazol-2-amine)], the Solubility entry in data set [1] is recorded as “DMSO”. Further, in data set [2], the “P50 of purified Hb” value amounted to 15.4, the “% met Hb” value is 5.0% and the n50 was 2.52.
